Source: PubChem BioAssay AID1466 (National Center for Advancing Translational Sciences (NCATS), 2008)
Among all 200,000 compounds or so, about 10 (0.005%) were called active. The shares of active, inactive and inconclusive entries below differ from those in the screen. Calls come from the whole dose curve; as a rule, active = well fitted inhibition curve with a large enough effect; inconclusive = small, poorly fitted or top-dose-only effect, or effect the other way, or another doubt; inactive = no such curve, though single readings can be large or run the other way. Potencies of inconclusive entries are left out as doubtful fits.

Each molecule was assayed against Lysosomal alpha-glucosidase (Homo sapiens) (UniProt P10253) (assay: qHTS Assay for Inhibitors of Human alpha-Glucosidase as a Potential Chaperone Treatment of Pompe Disease). Details: purified human GAA, 4-MU-alpha-glucoside fluorescence; activity change, negative = inhibition: at 76.9 µM (top of the series) unless noted.
Method in brief: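 Enzyme (4 nM final) mixed with compound (up to 77 uM), then 4-MU-alpha-D-pyranoside (400 uM final) added; 20 min at room temperature, pH 5.0. Reaction stopped at pH 10, fluorescence read, AC50 derived by Hill fit.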
Potency is the fitted concentration of half-maximal effect; tags give direction and shape of the fitted curve.
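Throughout, for activity change, negative = inhibition: plate controls were uninhibited enzyme wells for no effect and no-enzyme background for full effect.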

Row | Structure (SMILES) | Potency | activity change, negative = inhibition
1 | C=CCC1c2cccc(C(=O)O)c2C(=O)N1c1ccc(Cl)cc1 (centres undefined) | inconclusive [activator, single point] | –
2 | Cc1cc(C(=O)NC(C)c2ccccc2)c2cc(F)ccc2n1 (centres undefined) | inconclusive [inhibitor, single point] | –
3 | CCOc1ccccc1Oc1c(C)oc2cc(OC(=O)c3ccco3)ccc2c1=O | inconclusive [activator, partial curve] | –
4 | O=S(=O)(NCCSc1ccccc1)c1ccc(F)cc1 | inconclusive [inhibitor, single point] | –
5 | CCOC(=O)C1CCN(C(=O)c2cccnc2)CC1 | inconclusive [inhibitor, single point] | –
6 | O=C(c1ccc(CN2CCOCC2)cc1)N1CCC(Cc2ccccc2)CC1 | inconclusive [inhibitor, single point] | –
7 | O=C(NCCCNc1ccc(C(F)(F)F)cc1[N+](=O)[O-])c1ccc(Cl)cc1 | inconclusive [inhibitor, single point] | –
8 | Cc1cccc2cc(C#N)c(NCCNC(=S)NCCCN3CCOCC3)nc12 | inconclusive [activator, partial curve] | –
9 | O=C(CNC(=S)N(Cc1ccccc1)Cc1ccccc1F)NCc1ccc(Cl)cc1 | inconclusive [inhibitor, partial curve] | –
10 | Cc1ccc(C2Nc3ccccc3-c3nc4ccccc4n32)o1 (centres undefined) | inconclusive [activator, partial curve] | –
11 | O=C(NCCC(=O)N1CCNC1=O)OCc1ccccc1 | inconclusive [activator, single point] | –
12 | Nc1ccc2nc(-c3cccs3)[nH]c2c1 | inconclusive [activator, partial curve] | –
13 | O=c1[nH]c2cc3c(cc2cc1CN(Cc1ccco1)C(=S)NCCCN1CCOCC1)OCCO3 | – | inconclusive: 23.9% [activator]
14 | CCOc1ccc(NC(=O)CC2SC(=O)N(c3ccccc3)C2=O)cc1 (centres undefined) | – | inactive: -6.1%
15 | Nc1[nH]nc2ncc3cc4ccccc4nc3c12 | – | inconclusive: 14.2% [activator]
16 | S=C(NCCc1ccccc1)N1CCN(C23CC4CC(CC(C4)C2)C3)CC1 | inconclusive [inhibitor, single point] | –
17 | Cc1cc(NS(=O)(=O)c2ccccc2)c(C)c(Cl)c1O | – | inactive: -1.37%
18 | CCOc1ccc(N2Nc3n[nH]c(N)c3N2)cc1 | – | inactive: -8.18%
19 | Cc1ccc(NC(=S)NCc2cccs2)cc1 | inconclusive [inhibitor, single point] | –
20 | CCOC(=O)C1=C(c2ccccc2)N=C2SCC(=O)N2C1c1ccc(OCC)c(OCC)c1 (centres undefined) | inconclusive [inhibitor, full curve] | –
21 | O=c1[nH]ncc(NCc2ccc(Cl)cc2)c1Cl | – | inconclusive: 16% [activator]
22 | CCCn1c(SCC(=O)Nc2sc(C)c(C)c2C#N)nnc1C(C)C | inconclusive [inhibitor, single point] | –
23 | Cc1noc(C)c1S(=O)(=O)N(CCc1ccccc1)Cc1ccccc1 | inconclusive [inhibitor, single point] | –

Row | Structure (SMILES) | Potency | activity change, negative = inhibition
24 | COc1ccc(-c2cc(=NC(CC(C)C)C(=O)O)c3cc(C)ccc3o2)cc1 (centres undefined) | inconclusive [activator, partial curve] | –
25 | O=C(NCCCN1CCOCC1)C(=O)NCc1ccc(Cl)cc1 | – | inconclusive: 18.8% [activator]
26 | CCC(C)c1ccc(NC(=S)NCc2ccccc2OC)cc1 (centres undefined) | – | inactive: -2.88%
27 | COc1ccc(OC)c(NC(=O)c2c(NC(=O)CNCc3ccco3)sc3c2CCC3)c1 | inconclusive [inhibitor, single point] | –
28 | C=CCOc1cccc(CNc2ccc3[nH]c(=O)[nH]c3c2)c1 | – | inactive: -2.42%
29 | Cc1ccc(NC(=O)c2c(C)nn(-c3ccccc3)c2Cl)c(C)c1 | inconclusive [inhibitor, full curve, poor fit] | –
30 | C=C(C)Cn1c(Sc2nc3ccccc3[nH]2)nc2c1c(=O)[nH]c(=O)n2C | – | inconclusive: 13.9% [activator]
31 | COc1ccccc1Nc1nnc(SCc2cc(=O)n3ccsc3n2)s1 | inconclusive [inhibitor, single point] | –
32 | CN(CCc1ccccn1)C(=O)CCC1CCCN(C(=O)c2ccccn2)C1 (centres undefined) | – | inconclusive: 11.3% [activator]
33 | CCOC(=O)c1cc2c(=O)n3cccc(C)c3nc2n(Cc2ccco2)c1=NC(=O)c1cccnc1 | inconclusive [activator, partial curve] | –
34 | CCOC(=O)N/N=C/c1c(F)c(F)c(F)c(F)c1F | inconclusive [inhibitor, single point] | –
35 | Cn1c(SCCOc2ccccc2F)nc2ccccc2c1=O | inconclusive [inhibitor, single point] | –
36 | O=C(Nc1ccccc1)Nc1nc2ccccc2s1 | inconclusive [inhibitor, full curve, poor fit] | –
37 | Cc1ccccc1NC(=O)NCc1ccc2c(c1)OCO2 | – | inconclusive: 13.6% [activator]
38 | Cc1cccc(NC(=S)N(C)C2(c3ccccc3Cl)CCCCC2=O)c1 (centres undefined) | inconclusive [inhibitor, single point] | –
39 | Cc1ccc(Nc2ncnc(N)n2)cc1C | inconclusive [activator, partial curve] | –
40 | CCOc1ccc(N2C(=O)/C(=C/c3cccs3)N(CC(=O)OC)C2=S)cc1 | inconclusive [inhibitor, single point] | –
41 | O=C(Nc1ccccc1Cl)c1ccccc1Cl | – | inactive: -4.56%
42 | COc1ccc(-n2cc(CN3CCC(OC)CC3)c(-c3cccc(F)c3)n2)cc1 | inconclusive [inhibitor, single point] | –
43 | COc1cccc(CN2CCN(Cc3cccc4nonc34)CC2CCO)c1 (centres undefined) | – | inconclusive: 16.4% [activator]
44 | O=C(/C=C\Nc1ccc2c(c1)OCO2)c1cccs1 | – | inactive: -4.98%
45 | CC(C)Nc1nc(NC(C)C)nc(N(C)C(N)=O)n1 | – | inactive: 8.14%
46 | CN(C)S(=O)(=O)c1cc(NC(=O)CN2CCN(c3ccc(O)cc3)CC2)ccc1Cl | – | inactive: -17.9%

Row | Structure (SMILES) | Potency | activity change, negative = inhibition
47 | COc1ccc(C(=O)NNC(=O)CSc2nnc(-c3ccc(O)cc3)n2C)cc1 | – | inactive: 3.74%
48 | CSc1cccc(NC(=O)CCCOc2ccc(Cl)cc2Cl)c1 | – | inconclusive: -17.4% [inhibitor]
49 | C=CCn1c(SCC(=O)NC(=O)NCCC)nnc1C1CCCCC1 | – | inconclusive: 13.7% [activator]
50 | Cc1ccc(Nc2nc(=O)c3cccnc3s2)cc1 | – | inactive: 1.6%
51 | CCOc1ccc(S(=O)(=O)N(C)c2ccc(OCC(=O)OCc3c(C)noc3C)cc2)cc1 | – | inconclusive: -16% [inhibitor]
52 | O=S(=O)(c1ccccc1)N1CCN(c2nnc(-c3ccccc3)c3ccccc23)CC1 | inconclusive [inhibitor, single point] | –
53 | COc1ccc(/C=N/NC(=O)c2ccc(Cn3cc([N+](=O)[O-])cn3)o2)cc1O | inconclusive [inhibitor, partial curve, poor fit] | –
54 | CCOc1ccc(NC(=O)Nc2cccn(Cc3ccccc3)c2=O)cc1 | – | inconclusive: 8.86% [activator]
55 | COc1ccc2nc(C)cc(SCC(=O)N/N=C/c3cccc4ccccc34)c2c1 | inconclusive [inhibitor, single point] | –
56 | Cc1ccc(S(=O)(=O)N2CCCC2C(=O)OCc2nc3sc(C)c(C)c3c(=O)[nH]2)cc1 (centres undefined) | – | inconclusive: -15.9% [inhibitor]
57 | CCOC(=O)C1(C)C=C(Nc2ccccc2)C(=O)N1c1ccccc1 (centres undefined) | – | inconclusive: 19.2% [activator]
58 | CC(C)(C)c1cc(C(=O)N/N=C/c2ccc(F)cc2)n(-c2ccccc2)n1 | – | inconclusive: -19.1% [inhibitor]
59 | C#CCn1ccc(O)c(Cc2c(F)cccc2Cl)c1=O | inconclusive [inhibitor, single point] | –
60 | O=C(NCCN1CCC(Cc2ccccc2)CC1)C1CCN(S(=O)(=O)N2CCC3(CC2)OCCO3)CC1 | inconclusive [inhibitor, full curve, poor fit] | –
61 | O=C(Nc1cc(C(F)(F)F)ccc1N1CCOCC1)c1ccccc1F | inconclusive [inhibitor, single point] | –
62 | Cc1ccc(C2(C)NC(=O)N(CC(=O)Nc3ccc4c(c3)OCO4)C2=O)cc1 (centres undefined) | inconclusive [inhibitor, partial curve, poor fit] | –
63 | CC(Oc1ccc(C#N)cc1)C(=O)c1ccc(F)c(F)c1 (centres undefined) | inconclusive [inhibitor, partial curve, poor fit] | –
64 | CCOC(=O)c1oc2ccc(S(=O)(=O)n3nc(-c4cc(OC)c(OC)c(OC)c4)cc3N)cc2c1C | inconclusive [inhibitor, partial curve] | –
65 | COc1cccc(C(=O)n2cnnc2N)c1OC | inconclusive [inhibitor, partial curve, poor fit] | –
66 | Cc1ccc(C(CC(=O)c2ccco2)SCCO)cc1 (centres undefined) | inconclusive [inhibitor, single point] | –
67 | O=C1COc2ccc(C(=O)c3ccccc3C(=O)O)cc2N1 | inconclusive [inhibitor, partial curve] | –
68 | Cc1ccccc1NC(=S)N(CCc1c(C)[nH]c2ccc(F)cc12)Cc1cccnc1 | inconclusive [inhibitor, partial curve] | –
69 | COC(=O)c1ccc(CNC(=O)CSc2nc3sc(C)c(C)c3c(=O)n2C)o1 | inconclusive [inhibitor, single point] | –
